According to PMC6919601, “Identification of Plasmodium dipeptidyl aminopeptidase allosteric inhibitors by high throughput screening” (PLoS ONE, 2019):
In all, about 110,000 compounds went through this assay and about 230 (0.21%) showed an effect of 50% or more. The list shows a part of the results.

target: DPAP1 (Plasmodium falciparum, UniProt Q8IIJ9); experiment: primary screen, percent inhibition; read by cleavage of a fluorogenic dipeptide substrate; higher = more effect of the substance; set-up: species or system P. falciparum D10 trophozoite lysates; single well
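Further: 30 min substrate incubation versus DMSO and 10 µM JCP410 controls.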

DPAP1, sequence (Q8IIJ9 whole entry, looked up): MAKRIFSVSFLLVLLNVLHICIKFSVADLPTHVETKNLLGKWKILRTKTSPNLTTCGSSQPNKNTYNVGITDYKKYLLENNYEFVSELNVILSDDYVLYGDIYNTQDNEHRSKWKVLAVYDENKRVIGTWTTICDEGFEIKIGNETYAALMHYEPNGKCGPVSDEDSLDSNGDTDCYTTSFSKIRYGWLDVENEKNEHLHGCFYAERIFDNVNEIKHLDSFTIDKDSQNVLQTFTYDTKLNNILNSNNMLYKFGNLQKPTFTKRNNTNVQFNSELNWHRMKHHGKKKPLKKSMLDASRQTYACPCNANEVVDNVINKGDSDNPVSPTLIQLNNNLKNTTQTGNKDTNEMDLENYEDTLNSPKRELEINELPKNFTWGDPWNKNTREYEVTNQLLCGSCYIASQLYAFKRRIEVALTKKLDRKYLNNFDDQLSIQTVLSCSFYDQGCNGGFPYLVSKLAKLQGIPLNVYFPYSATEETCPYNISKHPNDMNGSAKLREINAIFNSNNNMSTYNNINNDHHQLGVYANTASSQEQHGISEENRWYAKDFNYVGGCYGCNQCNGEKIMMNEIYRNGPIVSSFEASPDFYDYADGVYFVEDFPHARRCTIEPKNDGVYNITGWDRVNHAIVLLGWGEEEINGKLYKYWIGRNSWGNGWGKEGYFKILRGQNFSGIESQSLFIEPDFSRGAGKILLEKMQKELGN

Row | Compound | % Inhibition @ 10 uM [%]
1 | Cc1ccc(S(=O)(=O)Cc2ccc(C(=O)N3CCc4ccccc4C3)o2)cc1 | -3.32
2 | Cc1sc(NC(=O)C2CCCCC2)c(C(N)=O)c1C | -0.582
3 | O=C(O)C1Cc2c([nH]c3ccccc23)C(c2cccc(O)c2)N1 (stereo not drawn) | -3.62
4 | O=C(O)c1ccc(-c2nc3c4ccccc4c4ccccc4c3[nH]2)cc1 | 14.8
5 | O=C1OC(c2ccccc2Br)=N/C1=C\N1CCOCC1 | -8.05
6 | Cn1c(=O)c2ncn(CC(=O)Nc3ccc(-c4nc5ccccc5o4)cc3)c2n(C)c1=O | 18.2
7 | Cc1ccc(N2C(=O)NC(=O)/C(=C/Nc3cccc(Br)c3)C2=O)cc1 | -2.54
8 | Cc1ccc(CCNC(=O)C(C)n2sc3ccccc3c2=O)cc1 (stereo not drawn) | -3.27
9 | CS(=O)(=O)N(CC(=O)N1CCC(Cc2ccccc2)CC1)c1cccc(F)c1 | 4.22
10 | CC1=C(C(=O)Nc2ccccc2)C(c2ccc(C)o2)n2c(s/c(=C/c3cnn(C)c3C)c2=O)=N1 (stereo not drawn) | 2.42
11 | O=C1NC(=O)c2cccc3cccc1c23 | -4.51
12 | Cc1[nH]nc2c1C(c1cc(CSc3nc4ccccc4s3)cs1)C(C#N)=C(N)O2 (stereo not drawn) | 9.78
13 | CCN(CC)Cc1cc(C(=O)O)c(-c2ccccc2)o1 | 1.03
14 | Cc1c(Cl)c(C(=O)Nc2nc3ccccc3n2CCN2CCCCC2)nn1C | -1.1
15 | O=C(C1c2ccccc2Oc2ccccc21)N1CCCCCC1 | -1.88
16 | C=CCOc1ccc(CNC(C)c2ccccc2)cc1OC (stereo not drawn) | 4.11
17 | CC1CC(=O)C2=C(C1)OC(N)=C(C#N)C2c1ccc(Br)cc1 (stereo not drawn) | -0.197
18 | COCCN1C(=O)/C(=C/c2cccc(C)c2)S/C1=N\c1ccccc1 | 64.4
19 | COC(=O)C1=C(C)N(CCc2ccccc2)C(=O)/C1=C\c1cccc(O)c1 | -5.26
20 | CCN(CC)CC(O)c1cc2cc(Br)ccc2s1 (stereo not drawn) | -9.93
21 | [O-][n+]1onc2c1CCc1c-2nc(-c2ccccc2Cl)n1O | 0.215

Row | Compound | % Inhibition @ 10 uM [%]
22 | CCCSc1nnc2c(=O)n(C)c(=O)n(C)c2n1 | -1.15
23 | FC(F)(F)c1cccc(/C=C/c2nn3c(-c4ccco4)nnc3s2)c1 | 46.8
24 | FC(F)(c1cc(-c2ccccc2)[nH]n1)C(F)(F)c1cc(-c2ccccc2)[nH]n1 | -0.736
25 | C(=C\c1ccccc1)/CN1CCN(C2c3ccccc3-c3ccccc32)CC1 | 0.774
26 | CC(=O)/N=C(\N)Nc1nc(=O)c2ccccc2s1 | 5.55
27 | NC(=O)c1c(NC(=O)C2CCCN(C(=O)c3cc(F)cc(F)c3)C2)sc2c1CCCC2 (stereo not drawn) | 22.8
28 | COCc1cc(C)nc(SCC(=O)Nc2ccc(OC)cc2)c1C#N | 3.05
29 | CC[C@H](NC(=O)[C@H](CC1CCCC1)NC1=NS(=O)(=O)c2ccccc21)C(=O)c1nc(-c2ccccc2)no1 | -6.56
30 | COc1ccccc1-c1nnc(N)s1 | 5.98
31 | CCN(CC)c1ccc(NC(=O)c2nc3nc(C)cc(C(F)F)n3n2)cc1 | -11.4
32 | O=C(Nc1c(C(=O)N2CCN(C(=O)c3ccco3)CC2)cnn1-c1ccccc1Cl)c1ccco1 | -3.57
33 | N#CCNC(=O)C(CC1CCCCCC1)NC(=O)c1ccccc1 (stereo not drawn) | -3.49
34 | Cc1ccc(S(=O)(=O)N(CC(=O)Nc2ccc3c(c2)OCO3)c2cccc(Cl)c2)cc1 | -0.588
35 | CN1c2ccccc2-c2ccccc2C12C=Cc1cc(Br)cc(Br)c1O2 (stereo not drawn) | 4.33
36 | O=C(Nc1nonc1-n1cccc1)c1ccccc1Cl | -2.19
37 | COC(=O)c1onc(C(=O)c2ccccc2)c1C(=O)OC | -3.78
38 | O=C(Nc1nncs1)c1cn(-c2ccccc2)nc1-c1ccccc1 | 3.92
39 | OC(CN1CCCCC1)Cn1c(C(F)(F)F)nc2ccccc21 (stereo not drawn) | -5.13
40 | COC(=O)C1=C(C)NC(=O)CC1c1cccc(C(F)(F)F)c1 (stereo not drawn) | 0.345
41 | O/C(=C\C=N\c1ccccc1O)c1ccc(F)cc1 | 1.35
42 | O=C(Cc1ccc(F)cc1)NCc1ccc2[nH]c3c(c2c1)CCCC3 | 3.19

Row | Compound | % Inhibition @ 10 uM [%]
43 | CN(C)Cc1c(O)ccc2c(-c3ccccc3)cc(=O)oc12 | 22.4
44 | COc1cc(OC)c(C2C(C#N)=C(N)OC3=C2C(=O)CC(c2ccccc2)C3)cc1Br (stereo not drawn) | 41
45 | CC(C)(C#CC(O)(c1ccccc1)c1ccccc1)N1CCCCC1 | 0.774
46 | O=c1c(OCc2ccccc2)c(O)cnn1-c1ccccc1 | 3.83
47 | Cc1nc(C)c(NC(=O)N2CCCCC2C)cc1NC(=O)N1CCCCC1C (stereo not drawn) | 1
48 | O=C(Nc1ccccc1O)c1cccnc1 | -2.28
49 | CC1=C(C(=O)Nc2ccc(Br)cn2)C(c2cccnc2)C2=C(O)CC(C)(C)CC2=N1 (stereo not drawn) | -2.53
50 | CCCn1c(SCc2nc(-c3ccc(C)cc3)no2)nnc1-c1ccccc1 | -5.91
51 | Cc1cccc(C(=O)Nc2sc(Cc3ccccc3)c(C)c2C(N)=O)c1 | 5.31
52 | O=C(NCc1ccccc1Cl)c1ccc(CS(=O)c2ccccc2)o1 (stereo not drawn) | -3.09
53 | CCCOc1cccc(C(=O)Nc2cccc3ccccc23)c1 | 0.755
54 | CS(=O)(=O)C1=NN2C(=N)/C(=C\c3cn(CCOc4ccccc4)c4ccccc34)C(=O)N=C2S1 | -1.58
55 | CN1CCN(c2ccc(NC(=O)c3cc(Br)ccc3Cl)cc2)CC1 | 0.606
56 | Cc1cc(C(F)(F)Cl)n2ncc(-c3ccccc3)c2n1 | -1.6
57 | O=C(CN1C(=O)S/C(=C\c2cc3c(cc2Cl)OCO3)C1=O)c1ccccc1 | 0.161
58 | CC(O)CNC(=O)C1CC(=O)N(c2ccc(Br)cc2)C1 (stereo not drawn) | -2.58
59 | C=CCn1c(SCC)nc(O)c(CC)c1=O | 2.22
60 | COC(=O)C1=C(C)N(CC2CCCO2)C(=O)/C1=C\c1cc(C)n(-c2ccccc2C(=O)OC)c1C (stereo not drawn) | 1.63
61 | Cc1ccc(N(CC(=O)Nc2cccnc2)S(=O)(=O)c2ccc(C)cc2)cc1 | 0.161
62 | CSc1nc(Oc2ccc(F)cc2Cl)cc(-n2ncc(C#N)c2N)n1 | -4.65
63 | CN(CC(=O)N1CCCC1=O)Cc1ccccc1 | -6.06
